Experimental data from PubChem BioAssay AID1671194 (National Center for Advancing Translational Sciences (NCATS), 2021).
Among all 140,000 compounds or so, about 240 (0.17%) were called active. This list was built around the results that the source calls inconclusive (neither active nor inactive); the mix of calls is not that of the screen. Calls follow the shape of the dose curve; as a rule, active = well fitted inhibition curve with a large enough effect; inconclusive = small, poorly fitted or top-dose-only effect; inactive = no such curve, though single readings can be large or run the other way. Potencies of inconclusive entries are doubtful fits and often do not repeat.

assay: Primary qHTS assay for inhibitors of alpha-synuclein gene (SNCA) expression; details: HEK-293 SNCA-luciferase knock-in, luminescence, 24 h; activity change, negative = inhibition: at 57.2 µM (top of the series) unless noted; also: nearly all actives have a fitted effect of over 45% in size
Description: Assay Submitter (PI): Daniel R. Scoles Ph.D.
Department of Neurology, University of Utah, Salt Lake City, Utah
Accumulation of alpha-synuclein is a main underlying pathological feature of Parkinson's disease (PD) and alpha-synucleinopathies, for which lowering expression of the alpha-synuclein gene (SNCA) is a potential therapeutic avenue. Using a cell-based luciferase reporter of SNCA expression we performed a quantitative high throughput screen (qHTS) of 155,885 compounds in dose response. The screening assay was generated using genome editing to insert the luciferase gene downstream and in frame of the SNCA gene in HEK-293 cells (1). A viability counterscreen using GF-AFC was used to eliminate cytotoxic and false positive compounds. After in silico analysis (clustering, removal of frequent hitter nuisance chemotypes), inhibitor compounds from the primary screen were selected for follow up and re-tested at 11-doses in the SNCA-luc cells (luciferase and GF-AFC confirmation), and in CMV-luc expressing cell line to flag general transcriptional repressors.
Described herein are the results of the primary screen for SNCA inhibitors; decrease in luciferase signal (inhibition of the SNCA gene expression) is the desired output for this assay.
1. Dansithong, W., Paul, S., Scoles, D. R., Pulst, S. M., and Huynh, D. P. (2015) Generation of SNCA Cell Models Using Zinc Finger Nuclease (ZFN) Technology for Efficient High-Throughput Drug Screening. PLoS ONE 10, e0136930.
SEQUENCE No. (e.g., 1, 2, 3, etc.); […] (e.g., Cells, Incubation, Reagent, etc.); VALUE; DESCRIPTION
1; Cells; 4 uL; Dispense 1500 HEK-293-SNCA-luc cells/well into Greiner 1536-well white / solid bottom tissue culture treated plate. The plate was covered with metal lids with gas-exchange holes.
2; Incubate; 24 hours; Incubate at 37C, 5% CO2, 95% RH.
3; Compounds; 23 nL; Compounds and controls were transferred via a Kalypsys Pin Tool (Wako USA) equipped with a 1536-slotted pin array. The plate was covered with metal lids with gas-exchange holes.
4; Incubate; 24 hours; Incubate at 37C, 5% CO2, 95% RH.
5; Dispense; 1 uL; Dispense Gly-Phe-7-amino-4-trifluoromethylcoumarin (GF-AFC, prepared at 125 uM in PBS) was added. The plate was covered with metal lids with gas-exchange holes.
6; Incubate; 30 min; Incubate at 37C, 5% CO2.
7; Detector; Fluorescence; Measure fluorescence with ViewLux microplate reader (PerkinElmer) equipped with 405/10 excitation and 540/25 emission filters.
8; Dispense; 3 uL; Dispense ONE-Glo ([…]) lucifase detection reagent was added to each well. Plates were covered with metal lids with gas-exchange holes.
9; Incubate; 15 min; Incubate at room temperature.
10; Detector; Luminescence; Measure luminescence with ViewLux microplate reader (PerkinElmer) equipped with clear filters.
NOTES (numbers refer to sequence above)
1; HEK-293-SNCA-luc were cultured and suspended in phenol-red free DMEM (4.5 g/L glucose, 25 mM HEPES, cat #21063 (Thermo)).
3; Compounds were added to the assay plate in an 11-point intra plate dose response, 1:3 titration in DMSO with a final concentration range of […]. Vehicle-only plates, with DMSO being pin-transferred to every well, were inserted at the beginning of screening runs to confirm expected assay performance. Activity was normalized to wells containing medium only (-100% activity, full inhibition) and SNCA-luc cells treated with DMSO vehicle control (0% activity), contained on the same plate as test samples.
10; Signals were analyzed, and dose-response curves were fit using the Hill equation. Compounds in curve classes -1.1, -1.2, -2.1, -2.2 in the SNCA-luc assay were considered active. Compounds were eliminated from further consideration if also active (curve class -1.1, -1.2, -1.3, -1.4, -2.1, -2.2, -2.3, -2.4) in the GF-AFC cytotoxicity assay.
Potency is read from the fitted curve at half-maximal effect; tags tell the direction and shape of the fitted curve.

Structure (SMILES)	Potency	activity change, negative = inhibition
CCOC(=O)c1ccc(NC(=O)CN(c2ccc(C)cc2)S(=O)(=O)c2c(C)noc2C)cc1	inconclusive: 35.5 µM [inhibitor, partial curve, poor fit]	–
CCN(CC)CC[C@H]1CN(C(=O)c2ccc(OC)cc2)CC[C@H]1CC(=O)O	–	inactive: 23.8% [at 87.6 µM]
Cc1cccc(NC(=O)Cn2c(-c3cnccn3)nc(C)c(C)c2=O)c1	inconclusive: 7.08 µM [inhibitor, single point]	–
Cc1cccc(-c2ccc(C(=O)NCCCn3ccnc3C(C)C)cn2)c1C	inconclusive: 39.8 µM [inhibitor, single point]	–
COCCCNC(=O)C1(C)CN(Cc2ccccc2)Cc2ccc(Nc3ccccc3)nc21 (stereo not given)	inconclusive: 39.8 µM [inhibitor, single point]	–
O=C1CC(c2nc3ccccc3n2CCCCOc2ccccc2)CN1c1ccccc1Cl (stereo not given)	inconclusive: 25.1 µM [inhibitor, single point]	–
COc1ccc(-c2nc3scc(CCNS(=O)(=O)c4ccc(F)cc4F)n3n2)cc1OC	–	inactive: 18.5%
O=C(Nc1ccccc1)c1nc2c(o1)CCN(Cc1cccs1)CC2	active: 11.2 µM	–
COc1ccc(NC(=O)N2CCc3c(C(=O)NCCCN4CCCC4=O)cccc32)cc1	active: 10 µM	–
Cc1c(C(=O)N2CCCC2)oc2c1-c1nn(CC(=O)NCc3cccc(Br)c3)cc1CC2	inconclusive: 22.4 µM [inhibitor, single point]	–
CCNC(=O)[C@@H]1CCCN1[C@@H](C(=O)NC)c1cccc(O)c1	inconclusive: 4.47 µM [inhibitor, single point]	–
COc1ccc(-c2[nH]nc3ncc(C(=O)N4C[C@@H](C)O[C@@H](C)C4)nc23)c(C)c1	–	inactive: 1.32% [at 87.6 µM]
NC(=O)c1cc[nH]c1C1CCCN(Cc2ccc(Br)o2)C1 (stereo not given)	inconclusive: 39.8 µM [inhibitor, single point]	–
CC1=C[C@@H](CNCc2ccncc2)[C@H](C(C)C)C[C@H]1Cc1nnc(-c2ccc(C)cc2)o1	inconclusive: 31.6 µM [inhibitor, partial curve]	–
C[S+](=O)([O-])N1CCn2ncc(C(=O)NCc3ccc(Cl)nc3)c2C1	inconclusive: 7.08 µM [inhibitor, single point]	–
CCOc1ccc(-n2c(Cc3ccccc3)nnc2SCc2nc(-c3ccccc3C)no2)cc1	inconclusive: 39.8 µM [inhibitor, single point]	–
CCn1c(CN2CCC(C)CC2)nc2cc(NC(=O)c3ccccc3[N+](=O)[O-])ccc21	inconclusive: 31.6 µM [inhibitor, single point]	–
COc1ccccc1-c1nnc2ccc(C(=O)NCC3CC3)cn12	inconclusive: 3.16 µM [inhibitor, full curve, poor fit]	–
COc1ccc(-c2noc([C@@H]3CCCN3C(=O)c3ccc(Cl)cc3OC)n2)cc1	inconclusive: 3.16 µM [inhibitor, full curve]	–
COc1ccc(C(=O)N[C@@H]2CN(C(=O)Nc3ccc(F)cc3)CCC[C@H]2O)cc1	–	inactive: 38.7% [at 87.6 µM]
Cc1ccc(SCCN(C)c2cc(C3CC(O)C3)nc(N)n2)cc1 (stereo not given)	inconclusive: 8.91 µM [inhibitor, partial curve, poor fit]	–
CN(C(=O)C1(c2ccc(Cl)cc2)CCOCC1)C1CCc2ccccc21 (stereo not given)	–	inactive: -4.6%
Cc1nc(-c2c3n(c(=O)n(CC(=O)Nc4cccc(F)c4)c2=O)CCCCC3)no1	–	inactive: 2.84%

Structure (SMILES)	Potency	activity change, negative = inhibition
O=C(NCC1CCN(c2cc(-c3ccc(F)cc3)[nH]n2)CC1)c1ccc[nH]1	–	inactive: -1.92%
N#Cc1ccc(CN2CCN(c3nccc(Cl)n3)C(=O)C2)cc1	–	inactive: -0.594% [at 87.6 µM]
CC1(NC(=O)C2CC2)CN(Cc2nc(-c3cccc(N4CCOCC4)c3)cs2)C1	–	inactive: 53.6% [at 87.6 µM]
C#CCNC(=O)[C@@H]1Cc2cn(Cc3ccncc3)c3cccc(c23)[C@H](CC(C)C)N1	inconclusive: 35.5 µM [inhibitor, single point]	–
Cc1ccccc1CSc1cn(CCNC(=O)c2cccs2)c2ccccc12	inconclusive: 22.4 µM [inhibitor, single point]	–
COc1ccc(C2(C(=O)NC3CCc4n[nH]c(=O)n4CC3)CC2)cc1 (stereo not given)	inconclusive: 3.16 µM [inhibitor, single point]	–
CN(C)c1ccc(CN2CCNc3cc(-c4ccccc4)ncc3C2)cc1	–	inactive: 13.5% [at 87.6 µM]
O=C1c2cnc(-c3cc(F)cc(F)c3)nc2OCCN1Cc1ccccc1	–	inactive: 135% [at 87.6 µM]
CCCS(=O)(=O)c1ncc(Cl)c(C(=O)N(Cc2ccccc2)Cc2ccco2)n1	inconclusive: 22.4 µM [inhibitor, single point]	–
O=c1c2nc(-c3ccc(Cl)cc3)ccc2ncn1Cc1ccccn1	–	inactive: 5.48% [at 87.6 µM]
Cc1cccc(C(=O)N2CCC(Cc3nc(-c4cnccn4)no3)CC2)c1	–	inactive: -10.9%
C[C@]1(CO)C2CC[C@@H](O)[C@@H](CC(=O)N3CCC[C@H]3CO)[C@]2(C)CC[C@H]1OC(=O)Nc1cccc(C(F)(F)F)c1 (stereo not given in full)	inconclusive: 2.82 µM [inhibitor, single point]	–
Cc1cc(C)c(NC(=O)Cn2nc3c(cc2=O)CCCC3)c(C)c1	inconclusive: 7.08 µM [inhibitor, single point]	–
O=C(Nc1ccc(Cl)cc1)N1CCCC(C(=O)N2CCC(c3nc4ncccc4[nH]3)C2)C1 (stereo not given)	–	inactive: 9.9%
CNC(=O)c1cc(-c2ccccc2C)cc2c1OCCN2Cc1cccnc1	–	inactive: 4.35% [at 87.6 µM]
Cn1nc(C(=O)NCc2ccccc2)c2c1-c1ccccc1SC2	–	inactive: 53.1%
COc1ccccc1-c1cccc(C(=O)N2CCC[C@H]2C(=O)NC2CCCC2)c1	inconclusive: 39.8 µM [inhibitor, single point]	–
CCCCn1c(=O)c(C(=O)NCCc2ccccc2)nc2cccnc21	–	inactive: -24.2%
Cc1cccc(CN2CCCC23Cc2ccccc2CNC3=O)c1 (stereo not given)	–	inactive: -15.5%
COc1ccccc1-c1cccc(CN2CCCC(C(=O)NCc3cccc(C(F)(F)F)c3)C2)c1 (stereo not given)	inconclusive: 2.24 µM [inhibitor, partial curve, poor fit]	–
COc1ccc(-c2cc(N3CCN(C(=O)Cc4ccc(F)cc4)CC3)n[nH]2)cc1	–	inactive: 4.52%
COc1ccc(OC)c(CN2CC(Oc3ccccc3C(=O)NCc3ccccc3)C2)c1	inconclusive: 39.8 µM [inhibitor, single point]	–
